ChEMBL document CHEMBL5606460, “ASAP - DENV-2 NS2B-NS3 protease fluorescence single point” (2024)
The whole screen tested about 2,000 compounds, of which about 110 (5.5%) showed an effect of 50% or more. The list shows a part of the results.

Molecular target: Genome polyprotein (dengue virus type 2) (UniProt P29990)
[1] = Thailand/16681/1984, Concentration 25.0 uM, Number of replicates 1.0

SMILES: CCN(CC)CCN(CCN(CC)CC)C(=O)C1CCN(c2ccc(C=O)cc2)CC1
- inhibition [1]: 11.4%

SMILES: Cc1ncoc1CN1CCC(c2c[nH]c3cccnc23)CC1
- inhibition (Thailand/16681/1984, Concentration 49.5 uM, Number of replicates 2.0, Standard deviation 1.1442724807017337 %): 0.186%
- inhibition (Thailand/16681/1984, Concentration 99.01 uM, Number of replicates 2.0, Standard deviation 0.7941869328039364 %): 0.045%
- inhibition (Thailand/16681/1984, Concentration 198.0 uM, Number of replicates 2.0, Standard deviation 1.585075116068622 %): 0.349%

SMILES: O=Cc1ccc(N2CCC(C(=O)NC(c3ccccc3)(c3ccccc3)c3ccccc3)CC2)cc1
- inhibition [1]: 21.2%

SMILES: O=Cc1ccc(N2CCC(C(=O)Nc3cnc(Br)c(Cl)n3)CC2)cc1
- inhibition [1]: 10.2%

SMILES: O=Cc1ccc(N2CCC(C(=O)Nc3ccc(OCc4ccccc4)cc3)CC2)cc1
- inhibition [1]: 2.32%

SMILES: O=Cc1ccc(N2CCC(C(=O)N3CCCN(c4ccc(C(F)(F)F)cn4)CC3)CC2)cc1
- inhibition [1]: 9.22%

SMILES: CCCCCC(=O)N[C@H](C(=O)NCc1cccc(CN)c1)C1CCCCC1
- inhibition (Thailand/16681/1984, Concentration 49.5 uM, Number of replicates 2.0, Standard deviation 0.5123754441305728 %): -1.52%
- inhibition (Thailand/16681/1984, Concentration 99.01 uM, Number of replicates 2.0, Standard deviation 0.1437325545397317 %): -1.37%
- inhibition (Thailand/16681/1984, Concentration 198.0 uM, Number of replicates 2.0, Standard deviation 1.0834855562341692 %): 16%

SMILES: COc1ccc(CNC(=O)C2CCN(c3ccc(C=O)cc3)CC2)cc1F
- inhibition [1]: 12.5%

SMILES: CC(C)CC(=O)N1CCC(NC(=O)C2CCN(c3ccc(C=O)cc3)CC2)CC1
- inhibition [1]: 14.2%

SMILES: CNC(=O)c1cc(Cl)ccc1NS(=O)(=O)c1cccnc1
- inhibition (Thailand/16681/1984, Concentration 49.5 uM, Number of replicates 2.0, Standard deviation 0.5015651989560136 %): -2.47%
- inhibition (Thailand/16681/1984, Concentration 99.01 uM, Number of replicates 2.0, Standard deviation 1.4946832336826412 %): -1.48%
- inhibition (Thailand/16681/1984, Concentration 198.0 uM, Number of replicates 2.0, Standard deviation 0.31848435191486724 %): 0.141%

SMILES: O=Cc1ccc(N2CCC(C(=O)N(Cc3ccco3)Cc3cccs3)CC2)cc1
- inhibition [1]: 11%

SMILES: Cc1cc(CO)c2cccc(Cc3ccccc3C(=O)NCc3ccc(C(N)=O)cc3)c2n1
- inhibition (Thailand/16681/1984, Concentration 49.95 uM, Number of replicates 2.0, Standard deviation 0.2888981019288338 %): 2.07%
- inhibition (Thailand/16681/1984, Concentration 99.9 uM, Number of replicates 2.0, Standard deviation 0.18972386998439544 %): 5.84%

SMILES: CNC(=O)C1CCC(Nc2nc(Cl)cc3c(F)cccc23)CC1 (configuration not stated)
- inhibition (Thailand/16681/1984, Concentration 49.95 uM, Number of replicates 2.0, Standard deviation 5.365912193998162 %): -9.93%

SMILES: Cc1cc(CO)c2cccc(NC(=O)NCc3ccc(N)cc3)c2n1
- inhibition (Thailand/16681/1984, Concentration 49.95 uM, Number of replicates 2.0, Standard deviation 1.081774899946809 %): 4.55%
- inhibition (Thailand/16681/1984, Concentration 99.9 uM, Number of replicates 2.0, Standard deviation 2.6483447678271466 %): 14.1%

SMILES: CN(C)CC(=O)NC1(C)CCN(C(=O)c2ccc3[nH]ncc3c2)CC1
- inhibition (Thailand/16681/1984, Concentration 49.5 uM, Number of replicates 2.0, Standard deviation 0.040508516215578556 %): -4.26%
- inhibition (Thailand/16681/1984, Concentration 99.01 uM, Number of replicates 2.0, Standard deviation 0.04956975147063269 %): -4.6%
- inhibition (Thailand/16681/1984, Concentration 198.0 uM, Number of replicates 2.0, Standard deviation 0.28569224404370114 %): -4.56%

SMILES: N#Cc1ccc(NC(=O)C2CCN(c3ccc(C=O)cc3)CC2)cc1Br
- inhibition [1]: 12.7%

SMILES: NCc1cccc(NC(=O)[C@@H](NC(=O)OCc2ccccc2)c2ccc(F)c(F)c2)c1
- inhibition (Thailand/16681/1984, Concentration 49.5 uM, Number of replicates 2.0, Standard deviation 1.4013065114851189 %): -6.54%
- inhibition (Thailand/16681/1984, Concentration 99.01 uM, Number of replicates 2.0, Standard deviation 2.1722806038563465 %): -6.15%
- inhibition (Thailand/16681/1984, Concentration 198.0 uM, Number of replicates 2.0, Standard deviation 2.359590386651735 %): -2.47%

SMILES: CCn1ncc(N)c1-c1nn(C)cc1NC(=O)c1ccccc1C(F)(F)F
- inhibition (Thailand/16681/1984, Concentration 49.5 uM, Number of replicates 2.0, Standard deviation 3.463157820383284 %): -3.42%
- inhibition (Thailand/16681/1984, Concentration 99.01 uM, Number of replicates 2.0, Standard deviation 3.448439719414795 %): -2.92%
- inhibition (Thailand/16681/1984, Concentration 198.0 uM, Number of replicates 2.0, Standard deviation 4.48360939292153 %): -0.859%

SMILES: Cc1cc(CO)c2cccc(C[C@H](NC(=O)[C@@H](N)c3ccsc3)C(=O)O)c2n1
- inhibition (Thailand/16681/1984, Concentration 49.95 uM, Number of replicates 2.0, Standard deviation 1.7977802295531586 %): 8.31%
- inhibition (Thailand/16681/1984, Concentration 99.9 uM, Number of replicates 2.0, Standard deviation 1.1856845832025373 %): 20.1%

SMILES: CCCCN(CCCC)CCCNC(=O)C1CCN(c2ccc(C=O)cc2)CC1
- inhibition [1]: 15.7%

SMILES: Cc1cc(CO)c2cccc(Cc3cccc(NC(=O)Cc4cccc(CN)c4)c3)c2n1
- inhibition (Thailand/16681/1984, Concentration 49.95 uM, Number of replicates 2.0, Standard deviation 1.5571170041089204 %): 9.22%
- inhibition (Thailand/16681/1984, Concentration 99.9 uM, Number of replicates 2.0, Standard deviation 3.140543082582705 %): 20.8%

SMILES: CCCCCC(=O)N[C@H](C(=O)N1CCCCC1)c1ccc(OCc2ccccc2)cc1
- inhibition (Thailand/16681/1984, Concentration 49.5 uM, Number of replicates 2.0, Standard deviation 0.2378185107331052 %): -0.107%
- inhibition (Thailand/16681/1984, Concentration 99.01 uM, Number of replicates 2.0, Standard deviation 0.1909965362220304 %): -1.31%
- inhibition (Thailand/16681/1984, Concentration 198.0 uM, Number of replicates 2.0, Standard deviation 1.389360893431949 %): 1.05%

SMILES: CC(C)C(=O)N1CCN(C(=O)C2CCN(c3ccc(C=O)cc3)CC2)CC1
- inhibition [1]: 11.7%

SMILES: c1ccc(-n2cc(CN3CCC(c4c[nH]c5cccnc45)CC3)nn2)cc1
- inhibition (Thailand/16681/1984, Concentration 49.5 uM, Number of replicates 2.0, Standard deviation 4.560638827721375 %): -4.07%
- inhibition (Thailand/16681/1984, Concentration 99.01 uM, Number of replicates 2.0, Standard deviation 3.740439913687727 %): -4.92%
- inhibition (Thailand/16681/1984, Concentration 198.0 uM, Number of replicates 2.0, Standard deviation 3.303170912246841 %): -4.28%

SMILES: CNC(=O)c1cc(Cl)ccc1NS(=O)(=O)c1ccncc1
- inhibition (Thailand/16681/1984, Concentration 49.5 uM, Number of replicates 2.0, Standard deviation 1.2269842800583624 %): -3.48%
- inhibition (Thailand/16681/1984, Concentration 99.01 uM, Number of replicates 2.0, Standard deviation 0.8853112431233394 %): -3.3%
- inhibition (Thailand/16681/1984, Concentration 198.0 uM, Number of replicates 2.0, Standard deviation 0.4264789024599154 %): -4.04%
